To fix the notation:
B1: CPEB3 Ribozyme (parent)
chain: UAACAGGGGGCCACAGCAGAAGCGUUCACGUCGCAGCCCCUGUCAGAUUCUGGUGAAUCUGCGAAUUCUGCUGUAUAUCUC

The source gives no read counts; variants with many changes may rest on few reads.

The variants in this data set derive from B1. The data set is described as follows: self-cleavage, relative activity (ratio to wild type); higher = more cleavage; in vitro, sequencing. An outline of the steps: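 Barcoded CPEB3 ribozyme mutants, produced by rounds of error-prone PCR, self-cleaved while being transcribed with T7 RNA polymerase for 5 hours at 37°C and during a subsequent 15 min DNase I step before EDTA was added. Sequencing of template-switched cDNA on Illumina gave cleaved and total reads, and DNA sequencing assigned barcodes to variants. Each variant's relative activity is its cleaved/total read fraction divided by the unmutated ribozyme's fraction, averaged across three batches. A variant needed a minimum of 5 reads.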
Take UAACGGGGGGCCACAGCAGAAGCGUUCACGUCGCAGCCCCUGUCAGAUUCUGGUGAAUCAGCGAAUCCUGCAGUAUAUCUC [A5G U60A U67C U72A]: the self-cleavage amounted to 0.08.
In the case of UAACGGGGGGCCACAGCAGAAGCGUUCACGUCGCAGCCCCUGUCAGAUUCUGGAGAAACUGCGAAUUCUGCUGUAUAUCUC [A5G U54A U58A], the self-cleavage was found to be 0.09.
UAACGGGGGGCCACAGCAGAAGCGUUCACGUCGCAGCCCCUGUCAGAUUCCAGUGAACCUGCGAAUUCUGCAGUAUAUCUC [A5G U51C G52A U58C U72A]: the self-cleavage amounted to 0.21.
Consider UAACUGGGGGCCGCAGCAGAAGCGUUCACGUCGCAGCCCCUGUCGGAAUCUGGUGGAUCUGCGAAUUCUGCUGUAUAUCAC [A5U A13G A45G U48A A56G U80A], for which the self-cleavage is 0.29.
For the variant UAACGGGGGGCCACAGCAGAAGCGUUCACGUCGCAGCCCCUGUCAGAUUCCGGUGAAUCUGCGAAUUCUGCUGUAUACCUC [A5G U51C U78C], the self-cleavage came out at 0.64.
Regarding UAACGGGGGGCCACAGCAGAAGCGUUCACGUCGCAGCCCCUGUCAGAUUCUGGUGAAUCUGCGAAUUCUGCAGUUUACCUC [A5G U72A A75U U78C], the self-cleavage came out at 0.87.
As for UAACGGGGGGCCACAGCAGAAGCGUUCACGUCGCAGCCCCUGUCAGAUUCUGGUGAAUCUGCGAAUUCUGCAGUAUGUCUC [A5G U72A A77G], the self-cleavage came out at 0.63.
Take UAACUGGGGGCCGCAGCGGAAGCGUUAACGUCGCAGCCCCUGUCAGAUUCUGGUAAAUCUGCGAAUCCUGCUGUAUAUCCC [A5U A13G A18G C27A G55A U67C U80C]: the self-cleavage was 0.08.
The value for UAACGGGGGGCCACAGCAGAAGCGUUCACGUCGCAGCCCCUGUCAGAUUCCGGUGAAUCCGCGAAUUCUGCUGUAUACCUC [A5G U51C U60C U78C] was 0.24; that for UAACGGGGGGCCACAGCAGAAGCGUUCACGUCGCAGCCCCUGUCAGAUUCUGGUGAAUCUGCGAAUUCGGCCGUAUAUCUC [A5G U69G U72C] was 0.36.
In the case of UAACUGGGGGCCGCAGCAGAAGCGUUCACGUCGCAGCCCCUGUCAGAUUCUGGUGAGUCUGCGAAUUCUGCUGUACAUCUG [A5U A13G A57G U76C C81G] it was 0.93.
In the case of UAACGGGGGGCCACAGCAGAAGCGUUCACGUCGCAGCCCCUGUCAGAUUCUGGUGAAUCUGCGAAUCCUGCUGUGUAUCUC [A5G U67C A75G], the self-cleavage was determined as 0.55.
The value for UAACGGGGGGCCACAGCAGAAGCGUUCACGUCGCAGCCCCUGUCAGAUUCUGGUGAAUCUGCGAACUCUGCUGAAUAUCCC [A5G U66C U74A U80C] was 0.25.
The value for UAACGGGGGGCCACAGCAGAAGCGUUCACGUCGCAGCCCCUGUCAGAUUCUGGCGAAUCUGCGAAUUCUGCUGUAUAUCCC [A5G U54C U80C] was 0.89.
For the variant UAACGGGGGGCCACAGCAGAAGCGUUCACGUCGCAGCCCCUGUCAGAUUCUGGUGAACCUGCGAACUCUGCAGUAUAUCUC [A5G U58C U66C U72A], the self-cleavage came out at 0.25.
As for UAACGGGGGGCCACAGCAGAAGCGUUCACGUCGCAGCCCCUGUCAGAUUCCGGUGAAUCUGCGAAUUCUGCUGGAUAUCUC [A5G U51C U74G], the self-cleavage amounted to 1.02.
As to UAACUGGGGGCCGCAGCAGAAGCGUUCGCGACGCAGCCCCUGUCAGAUUCAGGUGAACCUGCGAAUUCUGCAGUAUAUCUC [A5U A13G A28G U31A U51A U58C U72A], the self-cleavage was 0.07.
With UAACGGGGGGCCACAGCAGAAGCGUUCACGUCGCAGCCCCUGUCAGAUUCUGGUGAAUCUGCGAAUCCUGCUGUAUAUCCC [A5G U67C U80C], the self-cleavage worked out at 0.17.
In the case of UAACGGGGGGCCACAGCAGAAGCGUUCACGUCGCAGCCCCUGUCAGAUUCUGGUGAAUCUGCGAAUCCUGCUGUAUAUCAC [A5G U67C U80A], the self-cleavage worked out at 0.22.
On to UAACUGGGGGCCCCAGCAGAAGCGUUCACGUCGCAGCCCCUGUCAGAUUCUGGUGAAUCUGCGAAUUCCGCUGUAUAUCCC [A5U A13C U69C U80C], for which the self-cleavage came out at 0.72.
As to UAACGGGGGGCCACAGCAGAAGCGUUCACGUCGCAGCCCCUGUCAGAUUCUGGAGAGUCUGCGAAUACUGCUGUAUAUCUC [A5G U54A A57G U67A], the self-cleavage worked out at 0.42.
With UAACGGGGGGCCACAGCAGAAGCGUUCACGUCGCAGCCCCUGUCAGAUUCUGGUGAACCUGCGUAUUCUGCUGUAUAUCUC [A5G U58C A64U], the self-cleavage came to 0.21.
The value for UAACUGGGGGCCGCAGCAGAAGCGUUCACGUCGCAGCCCCUGUCAGAUUCUGGUGAGUCUGCGAAUUCUGCUGUAUACCUC [A5U A13G A57G U78C] was 0.6; that for UAACGGGGGGCCACAGCAGAAGCGUUCACGUCGCAGCCCCUGUCAGAUUCUGGUGAAACCGCGAAUUCUGCUGUAUAUCUC [A5G U58A U60C] was 0.26; that for UAACGGGGGGCCACAGCAGAAGCGUUCACGUCGCAGCCCCUGUCAGAUUCUGGUGAAUCUGCGAACCCUGCUGUAUAUCUC [A5G U66C U67C] was 0.27.
UAACGGGGGGCCACAGCAGAAGCGUUCACGUCGCAGCCCCUGUCAGAUUCUGGUGAAUCUGCGAAUUCCGCUGUAUGUCUC [A5G U69C A77G]: the self-cleavage amounted to 0.54.
For the variant UAACUGGGGGCCGCUGCAGAAGCGUUCACGUCACAGCCCCUGUCAGGUUCUGGUGAAUCUGCGUAUUCUGCUGUAUAUCUC [A5U A13G A15U G33A A47G A64U], the self-cleavage was 0.
On to UAACUGGGGGCCGCAGCAGAAGCGUUCACGUCGCCGCCCCUGUCAGAUUCUGGUGGAUCUGCGAAUUCUGCUGUAUAGCUU [A5U A13G A35C A56G U78G C81U], for which the self-cleavage was 0.56.
On to UAACGGGGGGCCACAGCAGAAGCGUUCACGUCGCAGCCCCUGUCAGAUUCUGGUGAAUCUGCGAAUUCUGCCGUGUAACUC [A5G U72C A75G U78A], for which the self-cleavage was 1.09.
For the variant UAACUGGGGGCCGCAGCGGAAGCGUUCACGUCGCAGCCCCAGUCAGAUUCUGGUGAAUCUGCGAAUUCUGCUGUAUAUCUC [A5U A13G A18G U41A], the self-cleavage came out at 0.09.
UAACUGGGGGCCCCAGCAGAAGCGUUCACGUCGCAGCCCCUGUCAGACUCAGGUGAAUCUGCGAAUUCUGCAGUAUAUCUU [A5U A13C U48C U51A U72A C81U]: the self-cleavage is 0.13.
The value for UAACGGGGGGCCACAGCAGAAGCGUUCACGUCGCAGCCCCUGUCAGAUUCUGGUGAAUCUGCGAAUUCAGCAGUAUAUCUC [A5G U69A U72A] was 0.39; that for UAACUGGGGGCCGCAGCAGUAGCGUUCACGUCGCAGCCCCUGUCAGAUUCUGGUGAAUCUGCGAAUUCGGCUGAAUAUCUC [A5U A13G A20U U69G U74A] was 0.09.
For the variant UAACGGGGGGCCACAGCAGAAGCGUUCACGUCGCAGCCCCUGUCAGAUUCUGGAGUAUCUGCGAAUUCUGCUGUAUACCUC [A5G U54A A56U U78C], the self-cleavage came to 0.5.

The record behind these values is the RNAGym collection of RNA variant scans (doi:10.1093/nar/gkz1192).
